What was measured:
[1] = molecular target: full length recombinant human MCP-1(1-76) starting with an N-terminal glutamine
[2] = molecular target: MCP-1(1-76) bearing an N-terminal pyroglutamyl residue

B1: MMP-1 from human rheumatoid synovial fibroblasts (protein)
chain: FVLTEGNPRWEQTHLTYRIENYTPDLPRADVDHAIEKAFQLWSNVTPLTFTKVSEGQADIMISFVRGDHRDNSPFDGPGGNLAHAFQPGPGIGGDAHFDEDERWTNNFREYNLHRVAAHELGHSLGLSHSTDIGALMYPSYTFSGDVQLAQDDIDGIQAIYGRSQNPVQPIGPQTPKACDSKLTFDAITTIRGEVMFFKDRFYMRTNPFYPEVELNFISVFWPQLPNGLEAAYEFADRDEVRFFKGNKYWAVQGQNVLHGYPKDIYSSFGFPRTVKHIDAALSEENTGKTYFFVANKYWRYDEYKRSMDPGYPKMIAHDFPGIGHKVDAVFMKDGFFYFFHGTRQYKFDPKTKRILTLQKANSWFNCRKN
- N-terminal cleavage, MALDI-TOF [1]: MMP-1 inactivates mature MCP-1 by cleaving the 4 N-terminal amino acids (pE/Q-P-D-A) independent from the presence of a N-terminal pGlu residue
- N-terminal cleavage, MALDI-TOF [2]: MMP-1 inactivates mature MCP-1 by cleaving the 4 N-terminal amino acids (pE/Q-P-D-A) independent from the presence of a N-terminal pGlu residue
